Laboratory results: PMC7949078
Results are given in words; binding and its absence hold for the method and conditions named. For part of these data: In cells and extracts the contact can be indirect. Some results given as binding are weak or reduced against the parent protein; the word gives no strength. For part of these data: Tags and fused reporters may be left off the sequences shown.

T1: Microsomal triglyceride transfer protein (MTTP), endogenous in mouse intestinal epithelial cells (mouse (endogenous in intestinal epithelial cells)) (UniProt O08601)
T1 sequence: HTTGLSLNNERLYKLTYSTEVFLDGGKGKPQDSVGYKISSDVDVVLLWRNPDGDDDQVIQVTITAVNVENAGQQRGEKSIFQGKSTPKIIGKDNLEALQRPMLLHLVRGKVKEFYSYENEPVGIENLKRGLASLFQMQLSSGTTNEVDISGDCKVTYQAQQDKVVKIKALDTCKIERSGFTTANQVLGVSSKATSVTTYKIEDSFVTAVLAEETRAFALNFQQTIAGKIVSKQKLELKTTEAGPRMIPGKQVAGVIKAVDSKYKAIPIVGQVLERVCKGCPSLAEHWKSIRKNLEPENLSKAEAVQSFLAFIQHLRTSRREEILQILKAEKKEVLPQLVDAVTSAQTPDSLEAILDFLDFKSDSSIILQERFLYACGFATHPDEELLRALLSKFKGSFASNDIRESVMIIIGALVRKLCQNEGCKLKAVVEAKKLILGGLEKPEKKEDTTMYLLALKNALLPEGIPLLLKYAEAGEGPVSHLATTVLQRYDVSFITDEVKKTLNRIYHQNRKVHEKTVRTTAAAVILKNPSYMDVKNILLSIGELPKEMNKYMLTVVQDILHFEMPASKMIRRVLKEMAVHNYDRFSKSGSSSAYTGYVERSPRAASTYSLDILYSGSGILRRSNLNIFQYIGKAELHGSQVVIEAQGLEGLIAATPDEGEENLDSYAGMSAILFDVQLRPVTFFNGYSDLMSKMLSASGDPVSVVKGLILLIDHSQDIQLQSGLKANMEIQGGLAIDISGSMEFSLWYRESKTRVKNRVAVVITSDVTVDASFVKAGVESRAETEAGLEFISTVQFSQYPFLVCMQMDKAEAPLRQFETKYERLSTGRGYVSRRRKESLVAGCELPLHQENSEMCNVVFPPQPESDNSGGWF

T2: Proline-rich acidic protein 1 (PRAP1), endogenous wild type in mouse intestinal epithelial cells (mouse (endogenous in intestinal epithelial cells)) (UniProt Q80XD8)
T2 sequence: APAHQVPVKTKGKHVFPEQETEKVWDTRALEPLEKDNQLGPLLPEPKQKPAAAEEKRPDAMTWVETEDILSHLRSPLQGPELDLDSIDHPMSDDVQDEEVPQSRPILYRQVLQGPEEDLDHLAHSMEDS

T3: PRAP1 E85V mutant, endogenous in intestinal epithelial cells of E85V knock-in mice (mouse (endogenous in intestinal epithelial cells of knock-in mice)) (UniProt Q80XD8)
T3 sequence: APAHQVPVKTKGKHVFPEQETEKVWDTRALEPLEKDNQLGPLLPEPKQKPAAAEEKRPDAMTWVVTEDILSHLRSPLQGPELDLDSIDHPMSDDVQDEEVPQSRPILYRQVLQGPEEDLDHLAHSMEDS

T4: FLAG-tagged MTTP (UniProt O08601)
T4 sequence: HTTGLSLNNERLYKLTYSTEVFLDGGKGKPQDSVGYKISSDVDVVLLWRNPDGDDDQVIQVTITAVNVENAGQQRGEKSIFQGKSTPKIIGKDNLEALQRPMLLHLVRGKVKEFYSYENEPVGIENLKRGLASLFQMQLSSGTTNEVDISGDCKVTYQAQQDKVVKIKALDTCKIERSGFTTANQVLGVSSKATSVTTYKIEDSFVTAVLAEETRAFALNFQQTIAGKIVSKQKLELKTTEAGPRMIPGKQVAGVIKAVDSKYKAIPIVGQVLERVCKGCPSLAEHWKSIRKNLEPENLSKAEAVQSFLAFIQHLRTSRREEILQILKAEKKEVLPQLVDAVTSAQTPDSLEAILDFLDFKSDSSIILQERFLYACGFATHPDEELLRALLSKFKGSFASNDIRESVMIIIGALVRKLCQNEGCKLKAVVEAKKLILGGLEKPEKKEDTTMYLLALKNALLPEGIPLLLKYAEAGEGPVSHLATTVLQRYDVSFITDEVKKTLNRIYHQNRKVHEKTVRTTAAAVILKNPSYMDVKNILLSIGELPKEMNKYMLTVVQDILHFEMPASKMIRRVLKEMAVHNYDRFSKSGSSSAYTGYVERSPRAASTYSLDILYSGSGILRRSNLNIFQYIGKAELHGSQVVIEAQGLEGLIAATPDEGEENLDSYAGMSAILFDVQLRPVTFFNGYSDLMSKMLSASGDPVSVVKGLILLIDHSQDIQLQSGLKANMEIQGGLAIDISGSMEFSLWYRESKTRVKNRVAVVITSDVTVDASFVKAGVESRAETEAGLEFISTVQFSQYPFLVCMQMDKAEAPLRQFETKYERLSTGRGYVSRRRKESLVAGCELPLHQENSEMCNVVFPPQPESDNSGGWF


Assays:
[1] = biological target: T1, Microsomal triglyceride transfer protein (MTTP), endogenous in mouse intestinal epithelial cells (mouse (endogenous in intestinal epithelial cells)); experiment: co-IP; about 1 mg IEC lysate of control, PRAP1-/- or E85V mice in homogenization buffer (150 mM NaCl, 1 mM EDTA, 10 mM HEPES pH 7.4) immunoprecipitated with PRAP1- or MTTP-specific antibody; immunoblot for PRAP1 or MTTP; endogenous levels
[2] = biological target: T2, Proline-rich acidic protein 1 (PRAP1), endogenous wild type in mouse intestinal epithelial cells (mouse (endogenous in intestinal epithelial cells)); experiment: as above
[3] = biological target: T3, PRAP1 E85V mutant, endogenous in intestinal epithelial cells of E85V knock-in mice (mouse (endogenous in intestinal epithelial cells of knock-in mice)); experiment: as above
FLAG-tagged MTTP = biological target: T4, FLAG-tagged MTTP; experiment: pull-down; FLAG-MTTP immunoprecipitated from HeLa cells, held on protein-G agarose, incubated 4 h with recombinant GST-PRAP1 (wt or mutant) in buffer A (50 mM Tris-HCl pH 7.4, 150 mM NaCl) with [3H]-TG (40-80 pmole); immunoblot with FLAG or GST antibody; both purified

Row | Binder | binding [1] | binding (FLAG-tagged MTTP) | further results
1 | Proline-rich acidic protein 1 (PRAP1), endogenous wild type in mouse intestinal epithelial cells (protein, UniProt Q80XD8 21-149) APAHQVPVKTKGKHVFPEQETEKVWDTRALEPLEKDNQLGPLLPEPKQKPAAAEEKRPDAMTWVETEDILSHLRSPLQGPELDLDSIDHPMSDDVQDEEVPQSRPILYRQVLQGPEEDLDHLAHSMEDS | binds | – | –
2 | Microsomal triglyceride transfer protein (MTTP), endogenous in mouse intestinal epithelial cells (protein, UniProt O08601 22-894) HTTGLSLNNERLYKLTYSTEVFLDGGKGKPQDSVGYKISSDVDVVLLWRNPDGDDDQVIQVTITAVNVENAGQQRGEKSIFQGKSTPKIIGKDNLEALQRPMLLHLVRGKVKEFYSYENEPVGIENLKRGLASLFQMQLSSGTTNEVDISGDCKVTYQAQQDKVVKIKALDTCKIERSGFTTANQVLGVSSKATSVTTYKIEDSFVTAVLAEETRAFALNFQQTIAGKIVSKQKLELKTTEAGPRMIPGKQVAGVIKAVDSKYKAIPIVGQVLERVCKGCPSLAEHWKSIRKNLEPENLSKAEAVQSFLAFIQHLRTSRREEILQILKAEKKEVLPQLVDAVTSAQTPDSLEAILDFLDFKSDSSIILQERFLYACGFATHPDEELLRALLSKFKGSFASNDIRESVMIIIGALVRKLCQNEGCKLKAVVEAKKLILGGLEKPEKKEDTTMYLLALKNALLPEGIPLLLKYAEAGEGPVSHLATTVLQRYDVSFITDEVKKTLNRIYHQNRKVHEKTVRTTAAAVILKNPSYMDVKNILLSIGELPKEMNKYMLTVVQDILHFEMPASKMIRRVLKEMAVHNYDRFSKSGSSSAYTGYVERSPRAASTYSLDILYSGSGILRRSNLNIFQYIGKAELHGSQVVIEAQGLEGLIAATPDEGEENLDSYAGMSAILFDVQLRPVTFFNGYSDLMSKMLSASGDPVSVVKGLILLIDHSQDIQLQSGLKANMEIQGGLAIDISGSMEFSLWYRESKTRVKNRVAVVITSDVTVDASFVKAGVESRAETEAGLEFISTVQFSQYPFLVCMQMDKAEAPLRQFETKYERLSTGRGYVSRRRKESLVAGCELPLHQENSEMCNVVFPPQPESDNSGGWF | – | – | binding [2]: binds; binding [3]: no binding
3 | GST-PRAP1△N20 (GST-tagged recombinant PRAP1 lacking the N-terminal 20-aa signal peptide) (domain or fragment, UniProt Q80XD8 21-149) APAHQVPVKTKGKHVFPEQETEKVWDTRALEPLEKDNQLGPLLPEPKQKPAAAEEKRPDAMTWVETEDILSHLRSPLQGPELDLDSIDHPMSDDVQDEEVPQSRPILYRQVLQGPEEDLDHLAHSMEDS | – | binds | –
4 | GST-E118-119V (GST-PRAP1△N20 with the E118-119V mutation) (domain or fragment, UniProt Q80XD8 21-149) APAHQVPVKTKGKHVFPEQETEKVWDTRALEPLEKDNQLGPLLPEPKQKPAAAEEKRPDAMTWVETEDILSHLRSPLQGPELDLDSIDHPMSDDVQDVVVPQSRPILYRQVLQGPEEDLDHLAHSMEDS | – | binds | –
5 | PRAP1 E85V mutant, endogenous in intestinal epithelial cells of E85V knock-in mice (protein, UniProt Q80XD8 21-149) APAHQVPVKTKGKHVFPEQETEKVWDTRALEPLEKDNQLGPLLPEPKQKPAAAEEKRPDAMTWVVTEDILSHLRSPLQGPELDLDSIDHPMSDDVQDEEVPQSRPILYRQVLQGPEEDLDHLAHSMEDS | no binding | – | –
